# Results as given in the supplement of paper PMC3334620.
# In all, about 33,000 sequences were measured (“E-score (-0.5 to 0.5)”: median about -0.012, highest 2% from about 0.27 on). This is one part of the list.
# Biological target: T1, Vhr1 (UniProt P40522)
# T1 sequence: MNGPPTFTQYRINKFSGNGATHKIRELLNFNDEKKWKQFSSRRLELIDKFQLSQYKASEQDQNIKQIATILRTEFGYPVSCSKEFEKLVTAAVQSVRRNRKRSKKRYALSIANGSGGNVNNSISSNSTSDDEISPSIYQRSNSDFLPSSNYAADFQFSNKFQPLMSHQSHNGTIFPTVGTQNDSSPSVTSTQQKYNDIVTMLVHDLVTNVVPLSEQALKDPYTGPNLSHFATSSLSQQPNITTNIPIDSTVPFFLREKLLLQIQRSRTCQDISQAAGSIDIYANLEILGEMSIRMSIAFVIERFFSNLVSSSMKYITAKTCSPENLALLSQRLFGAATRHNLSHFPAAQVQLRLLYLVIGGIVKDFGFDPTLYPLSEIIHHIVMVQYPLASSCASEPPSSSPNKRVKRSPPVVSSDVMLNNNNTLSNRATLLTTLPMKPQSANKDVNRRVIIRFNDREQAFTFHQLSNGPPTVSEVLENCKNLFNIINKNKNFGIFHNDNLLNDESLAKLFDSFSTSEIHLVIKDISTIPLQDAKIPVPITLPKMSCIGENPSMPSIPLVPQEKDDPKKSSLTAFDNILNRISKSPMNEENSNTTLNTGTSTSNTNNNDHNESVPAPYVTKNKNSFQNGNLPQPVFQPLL
# Experiment: PBM E-score (8-mer binding enrichment) (E-score (-0.5 to 0.5)); higher = stronger / more preferred TF binding; most listed sequences are background and not binding sites
# Conditions: protein concentration: 200 nM; construct: GST-full length
# How it was run: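 Universal all-10-mer Agilent arrays, double-stranded by primer extension on fresh or once-stripped slides, were probed with about 100-200 nM GST-tagged yeast transcription factors made by PURExpress. Fluorescent anti-GST detected bound protein, and masliner normalised the scans. E-scores from the Universal PBM Analysis Suite were given to each ungapped eight-base word pooled with its reverse complement.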
row,Sequence,PBM E-score
1,ATCACAGG,0.135
2,TGCTCCAA,0.0362
3,CCATAGGC,-0.172
4,ACGAGCTG,0.163
5,CAAGCGCA,0.143
6,CTTCTGAC,-0.123
7,GGGAAGAA,-0.0968
8,ACACAAGG,0.0446
9,ATAGGTCG,0.125
10,ATCCTGCG,-0.0823
11,TCCTTCCA,-0.0415
12,CATTATTC,0.133
13,CGAAGACC,0.105
14,AGTCGCCA,0.233
15,CTCTTAAG,-0.19
16,ATCCCCGG,-0.09
17,CTTTGAGC,-0.264
18,ATGCCCAT,-0.0186
19,ACTGCACA,-0.0147
20,CATCGTCG,-0.044
21,CTTGAGAC,-0.248
22,CATGACCG,0.0167
23,CACGAATG,0.124
24,ACGCCTTC,-0.251
25,AGACCTCT,-0.143

row,Sequence,PBM E-score
1,ATAGGTAA,0.0149
2,ACTGCACT,-0.00619
3,CGCAAAAC,0.042
4,CTCACCGC,0.207
5,GCACCCGC,-0.0344
6,AGGGTGAT,0.163
7,CGAATCGC,0.164
8,AGTTAATA,0.216
9,AGACAGCT,-0.0952
10,TCTTAAGA,-0.051
11,AAATCGGG,-0.0685
12,ATATCTAA,0.0519
13,CTCGGAGA,-0.0274
14,GTCAGATA,0.0217
15,ACGCTCAC,0.0787
16,GATACAGC,-0.00349
17,CTGATTGC,0.035
18,AAGAGCCT,-0.214
19,ATGCTAAG,-0.0834
20,AACGTGTG,-0.122
21,CTCCAATC,0.0374
22,GCCCAACC,0.0849
23,CAGACACG,0.0686
24,ATATTGTC,0.0611
25,ACCTTTCA,-0.196

row,Sequence,PBM E-score
1,GACGATCC,0.0947
2,ACGCGGCG,0.0974
3,CTATGGGA,-0.189
4,AAGTGCCC,-0.0905
5,AGAACAGC,-0.0119
6,ATCATAGC,0.218
7,GAACTACC,-0.0176
8,GAACACGC,0.0339
9,CTGCTGAC,0.254
10,CTAATCTA,-0.115
11,GTCCTAGA,-0.31
12,TGACGTCA,0.0832
13,AAACCATG,0.214
14,AACCCGCT,-0.172
15,ACTGAATA,0.0125
16,AGAGACCA,0.0342
17,AACGACTA,0.0488
18,TCCGGCAA,0.14
19,CGAGGTAA,-0.0995
20,CTTAGGTA,-0.0978
21,CAATCACG,0.211
22,TGTAAGAA,-0.132
23,TAACTAGA,0.154
24,AATAATGG,0.0241
25,CGGTTATC,-0.0314

row,Sequence,PBM E-score
1,GGTAGATA,0.048
2,ATAAACAG,-0.0471
3,ACATACGC,0.122
4,AAATACTT,-0.0486
5,GGCGTAAC,-0.181
6,ATGATACA,0.289
7,AAGACTCA,0.317
8,AGTTGCAA,-0.2
9,ACGCACTC,-0.00777
10,AGTAGCAT,0.117
11,AAACTTGA,-0.113
12,ACTGCCGA,0.0718
13,CACACAAC,0.0519
14,GCTACAGC,0.102
15,GATTGGCC,-0.204
16,AAACAGTT,-0.128
17,GCCCCCCA,-0.244
18,ACTTTTCT,-0.174
19,ATGCTGCA,-0.025
20,AATAGCCC,-0.0969
21,ATTGGTTA,0.155
22,CGGAAATA,0.0181
23,AACTGCTT,-0.0678
24,ACGCCGCG,-0.0464
25,TACGCGGA,0.0236

row,Sequence,PBM E-score
1,CGAAATTC,-0.235
2,AAGTACCT,-0.121
3,ACGATCAC,-0.0532
4,ATGCTGGC,-0.0908
5,AGAATGTA,0.0323
6,CCCGAACA,0.0619
7,GGTTGCAA,-0.015
8,ACTGATCC,0.0497
9,AACCACCC,0.0993
10,GACTATAA,0.0359
11,CTGAAACC,0.0903
12,AAACAAAT,-0.00281
13,GCAAAACC,-0.0168
14,CAATTACG,-0.088
15,AATCACAG,0.27
16,CTACCGAC,-0.0219
17,GCCCAGCC,0.0771
18,AAAACGGT,-0.195
19,ATTTTGAC,0.155
20,CGTCCCGA,-0.214
21,CCCTAGAA,-0.255
22,CAGAACGG,-0.117
23,ACACGTAT,0.14
24,TCTACGAA,-0.257
25,TCTGCAGA,-0.114

row,Sequence,PBM E-score
1,ATTTTCCC,-0.154
2,CGACTAAG,0.118
3,GGCACACC,0.0319
4,GTATTTAA,-0.0956
5,GCCTCGAC,-0.0986
6,ACGTAAGG,-0.217
7,ACAACCTG,0.018
8,ATAGATAT,0.177
9,ATACACCA,0.114
10,AGTGGGAG,0.117
11,AGTGTCGC,0.138
12,ATTTGATA,0.215
13,AGCATACT,0.0151
14,AGATCTAG,-0.0772
15,CCATACTA,0.262
16,CTCGTACC,0.0824
17,AAGTAAAT,-0.171
18,CTGCTTTC,-0.0862
19,ATGGACAC,0.0706
20,ACTGAACA,0.179
21,GAGGATAA,0.0571
22,TACACATA,0.234
23,AGGTAGCG,-0.18
24,AGGGCTGA,0.00168
25,AGCAAGAG,-0.212

row,Sequence,PBM E-score
1,GCATATGC,-0.249
2,ACGCCGGC,0.132
3,CAGGATGC,0.00328
4,AAGCATGC,-0.179
5,AGCTGTGC,-0.0386
6,GAAAAGAA,-0.0931
7,AGGGCCGA,0.134
8,CGGTAGCA,0.113
9,ACGCGGCA,-0.115
10,CAACGCGA,-0.0146
11,ACGGACGC,-0.142
12,ACCGCGCA,0.135
13,GTTGGCCA,-0.026
14,GAACGAGA,0.00657
15,CCACTACG,-0.0403
16,GGTGGGCA,-0.0273
17,AAACGTCA,-0.1
18,ATTCGGTC,-0.0276
19,GAGACAGA,0.109
20,ATTGCAGG,0.0245
21,TTTACAAA,-0.0509
22,ATTGAAAT,-0.0246
